B1: CPEB3 Ribozyme (parent)
chain: UAACAGGGGGCCACAGCAGAAGCGUUCACGUCGCAGCCCCUGUCAGAUUCUGGUGAAUCUGCGAAUUCUGCUGUAUAUCUC

The source gives no read counts; variants with many changes may rest on few reads.

The variants in the data set derive from B1. The data set can be described thus: self-cleavage, relative activity (ratio to wild type); higher = more cleavage; in vitro, sequencing. The procedure, abridged: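 For each CPEB3 ribozyme variant, relative activity is its cleaved/total read fraction divided by the unmutated ribozyme's. Barcoded error-prone PCR libraries were transcribed by T7 RNA polymerase (5 hours, 37°C) and held in DNase I for 15 min before an EDTA stop, with cleavage occurring throughout. Template-switching reverse transcription and Illumina sequencing were used to read the RNAs. A 5-read minimum applied, and results are the mean of three batches.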
Take U1C U26C U49C U60A: the self-cleavage turned out to be 0.2.

Regarding A2C U49G A56U G61A U78A, the self-cleavage turned out to be 0.27.

As to A2G A5U A15G U43C A45G A47U C79U, the self-cleavage was 0.17.

Consider A2C A15G C27U U72A, for which the self-cleavage was 0.27.

Turning to U1C U49C U80C, the self-cleavage worked out at 0.5.

Take U1G G7A A13U G24A U26C U66C: the self-cleavage amounted to 0.1.

As for A2G A5G A13G A35U U78C, the self-cleavage came to 0.38.

Take A2G A5C A15U U66C G70A U72C: the self-cleavage worked out at 0.34.

U1C U54A A56U: the self-cleavage came out at 0.66.

U1C U26A A35G G52A U76C: the self-cleavage was determined as 1.28.

Consider A2C A21U A35G U67A, for which the self-cleavage is 0.43.

Turning to A2G A5G A21G G52U, the self-cleavage worked out at 0.79.

As for U1C U26C A65G U74A, the self-cleavage stood at 0.14.

For U1G A5G A35G A57U U58C A64U U74C, the self-cleavage stood at 0.22.

With A2G A18U U41A U43C A45G, the self-cleavage is 0.41.

As for A2G A21U G22U U41A U67C, the self-cleavage was 0.05.

Take A2G A13U U43G C44U A45G A64G: the self-cleavage worked out at 0.07.

As to A2C U25C A45C A57G, the self-cleavage stood at 0.63.

Consider A2G A5G A35G, for which the self-cleavage came out at 1.04.

With A2G A3U G10A A57C U58A, the self-cleavage was determined as 0.03.

With A2G A65G U72A U80A, the self-cleavage amounted to 0.11.

A2G A5U G8A A45G: the self-cleavage turned out to be 0.45.

With A2G A5G C40U U54C, the self-cleavage came to 0.03.

On to U1G A2G U54G U58C U78C, for which the self-cleavage was found to be 0.19.

Consider A2C U51C A57G, for which the self-cleavage was determined as 0.2.

In the case of A2G A5U U31C U54A A57G U60C U74C, the self-cleavage was found to be 0.38.

With A2G A15U U31C U51C A64G, the self-cleavage stood at 0.08.

A2G A5U A15G U25A U60C: the self-cleavage worked out at 0.05.

As for A2G A18G C27U U78A, the self-cleavage was found to be 0.09.

With A2G A15G G22A A35G A57G, the self-cleavage is 0.12.

For the variant U1C U26C A28G A35U U43C U54G, the self-cleavage was determined as 0.36.

As to U1G A15U U43C C44A, the self-cleavage was 0.37.

On to U1C U54G U58A A64G, for which the self-cleavage worked out at 0.17.

On to U1G A18U G36U U51C, for which the self-cleavage worked out at 0.05.

As for A2G A5U U25C A45G U49C G55U, the self-cleavage was 0.33.

With A2G A5U A28U U43C A57G U76A, the self-cleavage turned out to be 0.29.

On to A2G A5G A15U U66C, for which the self-cleavage came to 0.37.

Turning to A2G A5G U54C U58G U60C G70A, the self-cleavage was determined as 0.09.

With U1C U51A A65G U67G, the self-cleavage amounted to 0.42.

In the case of A2G A35G U41A A47U U48A U49A U67C, the self-cleavage is 0.25.

In the case of A2G A45G U49A U66C, the self-cleavage amounted to 0.21.

As for A2C A3G A15U, the self-cleavage was 0.58.

Consider A2G A3G A28G U67C, for which the self-cleavage was found to be 0.39.

Regarding A2G A45U G70A U76C, the self-cleavage amounted to 0.17.

As for U1C U31C U48C U80C, the self-cleavage stood at 0.2.

For the variant A2G A3G A13G, the self-cleavage stood at 0.45.

Take A2G A56G U60C: the self-cleavage is 0.14.

Take A2C A5G A13G U25C A28U U41A C62U: the self-cleavage came to 0.06.

Turning to U1C U26A A28G, the self-cleavage turned out to be 0.37.

Consider A2G A3G U25C C40G U41A U74A, for which the self-cleavage was 0.17.

For A2G A13G C62U, the self-cleavage turned out to be 0.75.

Take A2G A3U C11G A18U A21G: the self-cleavage amounted to 0.56.

In the case of U1G C11U U25C A64G U78C, the self-cleavage came to 0.04.

For U1C U31C A45U, the self-cleavage was determined as 0.27.

Regarding A2G A18G A20U U60A, the self-cleavage turned out to be 0.19.

Regarding A2G A3U A45G, the self-cleavage is 1.01.

Turning to A2G A28C A75U, the self-cleavage is 0.46.

On to U1C U51C A56U A64G, for which the self-cleavage was found to be 0.31.

In the case of A2C A3G C23U U31C U54A, the self-cleavage turned out to be 0.09.

Consider A2G A3U G55A A64G, for which the self-cleavage stood at 0.5.

Take A2C C23A U26C A64U: the self-cleavage is 0.08.

As to U1G A35U U72A, the self-cleavage is 0.15.

On to A2G A56G U76A, for which the self-cleavage came to 0.65.

As to A2G A18U U25C A35U U41C G63C A64G, the self-cleavage is 0.08.

Turning to A2G A5G C40U U51C, the self-cleavage amounted to 0.07.

Regarding A2G A5C A15G A21G A45U, the self-cleavage came to 0.64.

As to A2G A5G A15U U78G, the self-cleavage stood at 0.55.

As to A2G A35G U43C, the self-cleavage is 0.96.

Consider A2G A13G A35U A45U A56G, for which the self-cleavage is 0.11.

Take A2G A15G U26C G30A U41C U60A U67C: the self-cleavage was determined as 0.07.

On to U1G A20G U48C U66C, for which the self-cleavage came to 0.22.

On to U1G A13U U25C U54C G61A, for which the self-cleavage is 0.05.

Take A2G A56U U72C: the self-cleavage is 0.37.

Regarding A2G A28U U41C U48C, the self-cleavage came out at 0.08.

As to A2G A13U C44U U60A A65G U66C U72A, the self-cleavage is 0.07.

For the variant A2G A28U U41A U58C U80A, the self-cleavage stood at 0.04.

For A2G A5U G8A C38U U54G A64G U66A, the self-cleavage turned out to be 0.05.

As to A2G A5G C29U U54C C59A U76C, the self-cleavage worked out at 0.05.

Turning to A2G A47G U60C A64U, the self-cleavage came out at 0.1.

With A2G A57G U66C, the self-cleavage amounted to 0.25.

For U1G A18C G19U, the self-cleavage worked out at 0.08.

Regarding A2G A20U A21G C62U, the self-cleavage was determined as 0.22.

For A2G A5U U25C U26A U41C U76A, the self-cleavage is 0.66.

For the origin of these results see the RNAGym collection of RNA variant scans (doi:10.1093/nar/gkz1192).
